These results are taken from the BET-seq Pho4 binding data (Le et al. 2018).

Some of the results follow. The energies were worked out here from pooled read counts, against the library average; single values are noisy.

In this assay the target is T1, Pho4 (S. cerevisiae) (UniProt P07270).
T1 sequence: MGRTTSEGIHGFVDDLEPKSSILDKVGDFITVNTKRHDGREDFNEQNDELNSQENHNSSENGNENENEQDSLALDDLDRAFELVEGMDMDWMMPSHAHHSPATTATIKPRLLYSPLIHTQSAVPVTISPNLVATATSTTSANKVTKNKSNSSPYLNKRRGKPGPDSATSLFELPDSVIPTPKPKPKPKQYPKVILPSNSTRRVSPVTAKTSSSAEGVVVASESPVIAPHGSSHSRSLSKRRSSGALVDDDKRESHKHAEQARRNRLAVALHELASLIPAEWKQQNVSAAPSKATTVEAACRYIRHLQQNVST
Description: relative binding free energy (BET-seq); higher = weaker binding. The settings on record: reference: library average.
GGAAACACGTGTTTTG: the “relative binding free energy” value was -0.11 kcal/mol.
Turning to CAGGTCACGTGCGTTA, the “relative binding free energy” value turned out to be 0.14 kcal/mol.
Under TACGTCACGTGAGTTA stands 0.24 kcal/mol; under GAGATCACGTGGTGTG, 0.14 kcal/mol; under GGACGCACGTGTTGTT, -0.09 kcal/mol.
With CAGTGCACGTGGAGTT, the “relative binding free energy” value worked out at 0.04 kcal/mol.
For the sequence TATGGCACGTGGAGGA, the “relative binding free energy” value is -0.11 kcal/mol.
As for AGGCGCACGTGGGTAG, the “relative binding free energy” value is -0.15 kcal/mol.
Next, TTCTACACGTGTGGAG: 0.15 kcal/mol.
As to AAGTCCACGTGGGGTT, the “relative binding free energy” value is -0.06 kcal/mol.
Under GTATTCACGTGAAGAG stands 0.31 kcal/mol; under TTGGGCACGTGAGGAG, 0.21 kcal/mol; under GTGGTCACGTGATGGT, 0.3 kcal/mol.
Next, TTTGGCACGTGTCACT: -0.09 kcal/mol; GGTGGCACGTGATAAG: 0.07 kcal/mol.
GGTCTCACGTGTGTAT: the “relative binding free energy” value worked out at 0.27 kcal/mol.
On to ATGGGCACGTGTTGTC, for which the “relative binding free energy” value is -0.14 kcal/mol.
As for GGAATCACGTGCTGTG, the “relative binding free energy” value was 0.23 kcal/mol.
Under GTGTACACGTGATTCT stands 0.33 kcal/mol; under ATTAACACGTGCTTGT, -0.08 kcal/mol.
As to GTGTTCACGTGAATCT, the “relative binding free energy” value was 0.36 kcal/mol.
AGAGACACGTGTTGTT: the “relative binding free energy” value stood at 0.09 kcal/mol.
For the sequence CTGTACACGTGGGGCT, the “relative binding free energy” value is -0.06 kcal/mol.
Consider TGTATCACGTGTACTA, for which the “relative binding free energy” value came to 0.21 kcal/mol.
Consider TATCGCACGTGAGGGT, for which the “relative binding free energy” value turned out to be 0.11 kcal/mol.
Next, GGCAACACGTGGGGCG: -0.05 kcal/mol; GGCAGCACGTGGTAGG: -0.05 kcal/mol; CGTAGCACGTGTGTTA: -0.14 kcal/mol.
Under GAGTTCACGTGTTCGT stands 0.36 kcal/mol.
As to TAGGTCACGTGGCATA, the “relative binding free energy” value was 0.04 kcal/mol.
In the case of AAGTACACGTGGCGTT, the “relative binding free energy” value is -0.08 kcal/mol.
Turning to TGGTGCACGTGTATTA, the “relative binding free energy” value amounted to 0 kcal/mol.
As to GGTCTCACGTGTGTCG, the “relative binding free energy” value was found to be 0.19 kcal/mol.
On to TTAGACACGTGGGGCT, for which the “relative binding free energy” value is -0.15 kcal/mol.
Under TGGGGCACGTGGTCGT stands -0.18 kcal/mol; under AATAGCACGTGTTGTA, -0.05 kcal/mol; under GGGTGCACGTGAGTCA, 0.16 kcal/mol.
Regarding AAGGACACGTGTAGGA, the “relative binding free energy” value is -0.01 kcal/mol.
On to AGTTACACGTGTTATA, for which the “relative binding free energy” value was 0.11 kcal/mol.
For the sequence TAATTCACGTGTATGA, the “relative binding free energy” value came out at 0.28 kcal/mol.
With ATGATCACGTGGGACG, the “relative binding free energy” value was 0.1 kcal/mol.
TGGATCACGTGACTGT: the “relative binding free energy” value turned out to be 0.32 kcal/mol.
Consider GCATTCACGTGGGAGT, for which the “relative binding free energy” value stood at 0.15 kcal/mol.
As for GATGTCACGTGGTGCG, the “relative binding free energy” value was determined as 0.11 kcal/mol.
As for TGCGTCACGTGTTGGT, the “relative binding free energy” value was 0 kcal/mol.
As for CTTGGCACGTGAGGAT, the “relative binding free energy” value came to 0.01 kcal/mol.
Under TTTCTCACGTGATATG stands 0.29 kcal/mol; under TAGGTCACGTGGTTTA, 0.06 kcal/mol.
For the sequence TTGTTCACGTGAGCGT, the “relative binding free energy” value stood at 0.27 kcal/mol.
Take TCTCTCACGTGTGTTT: the “relative binding free energy” value turned out to be 0.25 kcal/mol.
As to AGTTGCACGTGGCTGA, the “relative binding free energy” value was -0.02 kcal/mol.
For the sequence TTCATCACGTGTTGGC, the “relative binding free energy” value amounted to 0.13 kcal/mol.
With GAATGCACGTGCAGGT, the “relative binding free energy” value was found to be 0 kcal/mol.
Take TCGATCACGTGGTAAG: the “relative binding free energy” value came out at 0.18 kcal/mol.
On to GGTCCCACGTGTGGTA, for which the “relative binding free energy” value worked out at 0.07 kcal/mol.
Turning to TTTTTCACGTGATATA, the “relative binding free energy” value turned out to be 0.18 kcal/mol.
Turning to TGAATCACGTGGATTA, the “relative binding free energy” value was determined as 0.3 kcal/mol.
Next, TGAGTCACGTGGTTTT: 0.16 kcal/mol; GTTAGCACGTGGACTT: 0.04 kcal/mol.
For the sequence TGATTCACGTGTGTCA, the “relative binding free energy” value was 0.21 kcal/mol.
On to ATGATCACGTGGGTTG, for which the “relative binding free energy” value was -0.14 kcal/mol.
As to GTTTTCACGTGCTGCT, the “relative binding free energy” value came out at 0.33 kcal/mol.
Under TCGGCCACGTGGTGTT stands -0.2 kcal/mol; under GAGGTCACGTGAACGG, 0.39 kcal/mol.
As to AGCTCCACGTGGTTGG, the “relative binding free energy” value came out at 0.05 kcal/mol.
AGGGTCACGTGGAGCT: the “relative binding free energy” value worked out at 0.05 kcal/mol.
Consider ACAGGCACGTGTTTGG, for which the “relative binding free energy” value is -0.13 kcal/mol.
On to CGGACCACGTGTGTGG, for which the “relative binding free energy” value was -0.03 kcal/mol.
Regarding ATAGGCACGTGCGGGC, the “relative binding free energy” value is -0.11 kcal/mol.
Turning to GGGCACACGTGTTTGG, the “relative binding free energy” value came out at 0.04 kcal/mol.
For the sequence TTTCGCACGTGGTTTT, the “relative binding free energy” value was -0.13 kcal/mol.
On to TAAGACACGTGGTTTT, for which the “relative binding free energy” value came out at 0.05 kcal/mol.
Consider CTTGGCACGTGTCGCT, for which the “relative binding free energy” value was -0.06 kcal/mol.
Consider CGGTGCACGTGGGGCA, for which the “relative binding free energy” value is -0.18 kcal/mol.
Under TTTTACACGTGCAGAT stands 0.19 kcal/mol; under GGCTCCACGTGTGGGT, 0.04 kcal/mol.
Consider TGGTCCACGTGGCTAG, for which the “relative binding free energy” value is -0.04 kcal/mol.
For the sequence AGGGGCACGTGGTGTC, the “relative binding free energy” value is -0.21 kcal/mol.
For TGTGTCACGTGTTGAG, the “relative binding free energy” value was found to be 0.16 kcal/mol.
Next, ATCTGCACGTGTTGCG: 0.1 kcal/mol; AGTAACACGTGTATGT: -0.01 kcal/mol.
For GGTAACACGTGTTTGC, the “relative binding free energy” value worked out at 0.06 kcal/mol.
Take CGATACACGTGTGTTT: the “relative binding free energy” value turned out to be 0.09 kcal/mol.
Under GGTAGCACGTGTTCTG stands -0.06 kcal/mol; under AGGTGCACGTGTCTTG, -0.09 kcal/mol; under GAGATCACGTGTGATT, 0.35 kcal/mol.
Under CGTGTCACGTGCGTGA stands -0.05 kcal/mol; under AAGACCACGTGGTGGT, 0 kcal/mol; under GAAGTCACGTGTGGGT, 0.21 kcal/mol.
On to TGTTACACGTGTACAG, for which the “relative binding free energy” value stood at 0.18 kcal/mol.
Next, AAATTCACGTGAATGT: 0.32 kcal/mol; TTTGGCACGTGTATGT: -0.05 kcal/mol; ATTGACACGTGGAGCG: 0.19 kcal/mol.
For the sequence ATAGGCACGTGTCATG, the “relative binding free energy” value is -0.08 kcal/mol.
On to ACTAGCACGTGTTGGG, for which the “relative binding free energy” value is -0.13 kcal/mol.
Next, TAGGACACGTGACGGG: 0.12 kcal/mol; GGAGGCACGTGTAAGG: -0.02 kcal/mol.
With TTTCGCACGTGCAGGG, the “relative binding free energy” value is -0.08 kcal/mol.
With TCGGTCACGTGGATTT, the “relative binding free energy” value was determined as 0.31 kcal/mol.
With TCAGTCACGTGGTGCT, the “relative binding free energy” value was -0.06 kcal/mol.
Regarding ATGTTCACGTGTCATT, the “relative binding free energy” value is 0.33 kcal/mol.
Under ATGTTCACGTGGTTGG stands 0.33 kcal/mol; under TATGGCACGTGGCGGA, -0.22 kcal/mol; under GCGTTCACGTGTGGTC, 0.35 kcal/mol.
GAGGTCACGTGCGAGG: the “relative binding free energy” value is 0.01 kcal/mol.
TCTGTCACGTGATTGA: the “relative binding free energy” value is 0.26 kcal/mol.
In the case of ATGGACACGTGTTTGG, the “relative binding free energy” value was 0 kcal/mol.
Consider TTTATCACGTGTCGTG, for which the “relative binding free energy” value was found to be 0.1 kcal/mol.
As to TTGTGCACGTGATTGG, the “relative binding free energy” value was determined as 0.25 kcal/mol.
Consider TTCAGCACGTGAGGTT, for which the “relative binding free energy” value is 0.13 kcal/mol.
For AAGATCACGTGGGGTC, the “relative binding free energy” value is -0.03 kcal/mol.
As to GTGTGCACGTGTATCG, the “relative binding free energy” value is 0.07 kcal/mol.
With GGTTGCACGTGCATGT, the “relative binding free energy” value is -0.05 kcal/mol.
With GGAATCACGTGACTGT, the “relative binding free energy” value amounted to 0.37 kcal/mol.
Next, GTTAGCACGTGTGTGT: 0.1 kcal/mol.
